The values below come from ChEMBL document CHEMBL4888484, “Replenishing the malaria drug discovery pipeline: Screening and hit evaluation of the MMV Hit Generation Library 1 (HGL1) against asexual blood stage Plasmodium falciparum ,using a nano luciferase reporter read-out” (2022).

Each structure is given as a SMILES string. Screen size: about 150,000 compounds; about 540 (0.36%) showed an effect of 50% or more. The list shows a part of the results.

By % Inhibition is commonly meant the relative decrease from the control value, in per cent.

This experiment deals with Plasmodium falciparum. The experiment in a line: Primary screen in NF54 nanoGlo assay, in single point, at 2uM, 72h; a lower Z score goes with more inhibition. The note with it: timepoint 72 hour. The experiment is classed as functional, Erythrocyte.
For the molecule `CCc1nc(C)c(C(=O)N(Cc2ccc(C)cc2)[C@@H](C)CC)o1`, the “% Inhibition” value is listed as -10% and the Z score is 1.17.

On to `CCNc1ccnc(N[C@H]2CCCC[C@@H]2O)n1`, for which the “% Inhibition” value is 16% and the Z score was -2.01.

For `CCOC(=O)c1nc([C@H](CC(C)C)NCc2ccc(F)c(C)c2)n[nH]1`, the “% Inhibition” value is reported as -3% and the Z score was determined as 0.55.

For the molecule `CC(C)c1ccc(-c2nc(N3CCCCC3)nc(O)c2C#N)cc1`, the “% Inhibition” value was -6% and the Z score is on record as 0.85.

Regarding `Cc1ccc(CNc2cnn(CC(=O)NCCN(C)C)c2)c(-c2ccnn2C)c1`, the “% Inhibition” value is -9% and the Z score was found to be 1.21.

In the case of `COc1ccc(C)cc1NC(=O)C(=O)NCCC(c1ccccc1)c1ccccc1`, the “% Inhibition” value was determined as 12% and the Z score was -2.23.

In the case of `CCCN(C(=O)c1ccc(F)cc1F)c1cccc(NC(=O)c2ccc(F)cc2F)c1`, the “% Inhibition” value is -12% and the Z score amounted to 1.25.

As for `O=C(Nc1nc(-c2ccccc2)nc2c1C(=O)CCC2)c1ccccc1`, the “% Inhibition” value was -18% and the Z score was 2.3.

As to `COc1cccc([C@@H](C)NC(=O)c2cc(CN3CCC(O)CC3)on2)c1`, the “% Inhibition” value was -2% and the Z score came to 0.45.

As for `CC(C)[C@H]1CN(Cc2ccccc2Cn2cccn2)C[C@@H]1NC(=O)N(C)C`, the “% Inhibition” value is recorded as -11% and the Z score stood at 1.13.

For the molecule `CC(C)(C)c1cc(CS(=O)(=O)Nc2ccccc2OC(F)F)no1`, the “% Inhibition” value amounted to 4% and the Z score is reported as -0.49.

As for `COc1ccc(NC(=O)c2cnc(N(C)C)nc2)cc1Cl`, the “% Inhibition” value is reported as -4% and the Z score is on record as 0.65.

Take `Cc1cc(-c2noc(C3C[C@@H]4CC(=O)[C@H]3C4)n2)cc(C)c1Br` (some centres undefined): the “% Inhibition” value is -8% and the Z score came out at 1.44.

Regarding `CN(CCN1CCCCC1=O)C(=O)c1ccc2c(c1)c1ccccc1n2C`, the “% Inhibition” value is 3% and the Z score is reported as -0.52.

With `Cn1ccnc1C(NC(=O)N1CCCC(C)(C)C1)c1nccn1C`, the “% Inhibition” value is -34% and the Z score stood at 3.95.

In the case of `CN1CCC(C(=O)NC2CCCc3ccccc32)CC1=O` (centres undefined), the “% Inhibition” value is -14% and the Z score was found to be 1.2.

Consider `COCc1nsc(NC(=O)c2nnn(CC3CCCC3)c2C)n1`, for which the “% Inhibition” value was -13% and the Z score came out at 1.64.

On to `COc1ccc(CCC2CCCCN2C(=O)C(C)N)cc1OC` (centres undefined), for which the “% Inhibition” value was -6% and the Z score came out at 0.7.

Regarding `COc1ccc(F)c(NCc2cnc3cnccn23)c1`, the “% Inhibition” value is -4% and the Z score stood at 0.45.

Regarding `O=C(NC1CC1c1ccc(OCc2ccccc2)cc1)C1CCOC1` (centres undefined), the “% Inhibition” value is recorded as -3% and the Z score is listed as 0.36.

As to `COc1ccc(C(=O)N2c3ccccc3OC(=O)[C@@H]2CC(=O)Nc2ccccc2)cc1`, the “% Inhibition” value turned out to be 9% and the Z score is recorded as -1.15.

For the molecule `CC1(C(=O)NCCS(N)(=O)=O)CC2CCC1C2` (centres undefined), the “% Inhibition” value was found to be 0% and the Z score is on record as -0.07.

On to `COc1cc(NC(=O)N[C@H]2CCN(CC(F)F)C2)ccn1`, for which the “% Inhibition” value is reported as -8% and the Z score is listed as 1.61.

In the case of `O=C(CCCn1cncn1)NCc1ccc2cc[nH]c2c1`, the “% Inhibition” value was -7% and the Z score was 1.07.

As to `CCCOc1ccc(Cl)cc1CNC(=O)N1CCO[C@H](C(=O)N(C)C)C1`, the “% Inhibition” value is on record as -11% and the Z score was 1.03.

For `CCC1(CC)CN(c2ccnc(C(=O)NCCOC)c2)CCO1`, the “% Inhibition” value was -2% and the Z score was found to be 0.19.

In the case of `CCn1ncc(CNC(=O)C2CCCC2)c1C`, the “% Inhibition” value is -6% and the Z score was 0.73.

On to `CCCCNC(=O)N1CCC(N(Cc2ccc(F)cc2)C(=O)CN(CCC)S(=O)(=O)CCC)CC1`, for which the “% Inhibition” value is -2% and the Z score is 0.28.

For the molecule `CN(C(=O)c1csc(NC2CCCCC2)n1)C1CC(O)C1` (centres undefined), the “% Inhibition” value was -7% and the Z score is given as 1.04.

As to `O=C(N[C@H]1C[C@H]2OCC[C@@H]12)c1ccc2cccc(Cl)c2n1`, the “% Inhibition” value is -18% and the Z score is reported as 2.85.

`Cc1c(CC(=O)N2CCCO2)c2c(n1Cc1ccccc1F)CCCC2=O`: the “% Inhibition” value is given as -14% and the Z score is listed as 2.14.

In the case of `O=C(N[C@@H](CCO)C1CCCC1)c1cncc(N2CCCC2=O)c1`, the “% Inhibition” value is given as -10% and the Z score was 0.96.

For `O=C(Cn1nc(C2CC2)ccc1=O)Nc1cc[nH]n1`, the “% Inhibition” value amounted to 6% and the Z score is -0.81.

Consider `CS(=O)(=O)N(CCN1CCOCC1)C1CN(C(=O)COc2ccc(F)cc2)C1`, for which the “% Inhibition” value turned out to be 3% and the Z score was -0.36.

With `C[C@@H](C1CC1)N(C)C(=O)COCc1ccccc1`, the “% Inhibition” value is -1% and the Z score was 0.07.

In the case of `CC(C)c1cc(CNC(=O)c2cc(F)c(F)c(O)c2F)on1`, the “% Inhibition” value is -13% and the Z score stood at 1.11.

As to `CCN(CC)c1nc2cc(C(=O)NCc3ccc(F)cc3F)ccc2c(=O)n1Cc1ccccc1`, the “% Inhibition” value was -7% and the Z score is recorded as 1.38.

With `C=CCCC(=O)NC[C@H]1CCCN1c1ncccn1`, the “% Inhibition” value is given as -2% and the Z score was found to be 0.23.

In the case of `Cc1nnc2n1C[C@@H](Nc1ccc(C(=O)Nc3ccccc3)nn1)CC2`, the “% Inhibition” value is recorded as -1% and the Z score was 0.22.

On to `O=C(NCCn1ccnc1)NCC1(c2ccccc2)CC1`, for which the “% Inhibition” value is 7% and the Z score is recorded as -0.69.

For `Cc1ccc(-c2noc(-c3cccc(S(=O)(=O)N4CCN(c5cccc(C)c5)[C@@H](C)C4)c3)n2)cc1`, the “% Inhibition” value was -1% and the Z score was determined as 0.12.

As to `Cc1noc(C2CCN(C(=O)c3ccccc3-n3cnnn3)CC2)n1`, the “% Inhibition” value is recorded as -11% and the Z score stood at 2.37.
